# From article PMC4336329 (PLoS ONE, 2015)
# Out of some 310,000 compounds screened, about 14,000 (4.5%) showed an effect of 50% or more. Effects have a minus sign here. The list shows a part of the results.
# Biological target: human ether-à-go-go-related gene (hERG) potassium channel (human, UniProt Q12809)
# Experiment: primary screen, population patch clamp on CHO cells stably expressing hERG
# 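Also: peak tail current of the secondary pulse compared with the same well before compound.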
# Sequence of human ether-à-go-go-related gene (hERG) potassium channel (Q12809 whole entry, looked up): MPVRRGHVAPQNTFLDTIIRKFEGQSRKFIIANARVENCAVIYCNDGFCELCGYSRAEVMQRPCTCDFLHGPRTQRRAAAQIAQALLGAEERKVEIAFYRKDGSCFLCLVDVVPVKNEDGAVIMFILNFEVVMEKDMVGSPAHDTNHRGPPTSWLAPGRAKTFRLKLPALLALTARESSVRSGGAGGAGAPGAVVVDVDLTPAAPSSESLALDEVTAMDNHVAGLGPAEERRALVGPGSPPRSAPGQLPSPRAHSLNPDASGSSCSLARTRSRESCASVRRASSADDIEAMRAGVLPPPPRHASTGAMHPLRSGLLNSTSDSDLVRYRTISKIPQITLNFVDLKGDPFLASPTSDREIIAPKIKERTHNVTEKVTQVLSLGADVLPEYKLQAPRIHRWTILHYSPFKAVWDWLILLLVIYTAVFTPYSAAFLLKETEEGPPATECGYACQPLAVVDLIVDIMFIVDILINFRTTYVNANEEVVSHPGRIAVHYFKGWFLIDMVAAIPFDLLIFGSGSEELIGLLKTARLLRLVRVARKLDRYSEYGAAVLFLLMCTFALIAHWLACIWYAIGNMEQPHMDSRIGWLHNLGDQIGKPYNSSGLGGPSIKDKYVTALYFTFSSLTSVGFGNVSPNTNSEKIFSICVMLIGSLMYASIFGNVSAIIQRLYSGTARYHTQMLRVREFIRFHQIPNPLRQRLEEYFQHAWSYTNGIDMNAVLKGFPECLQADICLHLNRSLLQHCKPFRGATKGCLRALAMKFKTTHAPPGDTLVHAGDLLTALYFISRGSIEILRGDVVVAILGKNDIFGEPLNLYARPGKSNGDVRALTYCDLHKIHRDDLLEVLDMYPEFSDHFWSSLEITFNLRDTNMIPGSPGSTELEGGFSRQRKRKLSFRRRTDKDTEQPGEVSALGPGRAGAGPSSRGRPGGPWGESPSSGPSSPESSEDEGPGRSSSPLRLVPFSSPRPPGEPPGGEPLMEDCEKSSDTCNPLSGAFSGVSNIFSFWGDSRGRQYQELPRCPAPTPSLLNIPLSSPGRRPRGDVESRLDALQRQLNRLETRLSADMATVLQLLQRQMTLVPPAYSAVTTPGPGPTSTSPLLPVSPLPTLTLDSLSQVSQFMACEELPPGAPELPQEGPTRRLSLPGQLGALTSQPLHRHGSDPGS
row,Structure (SMILES),"hERG current change (%, negative = inhibition) at 10uM"
1,NC(=O)C1CCN(C(=O)CSc2nc(O)cc(=O)[nH]2)CC1,-1.38%
2,CC(C)c1cccc(C(C)C)c1O,8.51%
3,O=C(Nc1nnc(Cc2c[nH]c3ccccc23)s1)c1ccc(Cl)cc1Cl,13.4%
4,CC(C)Oc1cc(NC(=O)CS(=O)(=O)CC(=O)N(C)C)c(Cl)cc1Cl,-0.644%
5,CN(C)c1nc2c(c(=O)[nH]c(=O)n2C)n1CCCc1ccccc1,-19.1%
6,Cc1ccc(C2=CC(=O)C[C@H](c3ccc(Cl)cc3)C2)cc1,8.09%
7,COc1ccccc1-c1nnc(NC(=O)C(C)C)s1,9.09%
8,Cc1ccc(NC(=O)C2Cc3ccccc3C(=O)O2)cc1 (stereo not shown),13%
9,N#Cc1nc(COc2ccccc2Cl)oc1NCc1cccnc1,-51.2%
10,CCCC1CCC(=NNC(=O)OC(C)(C)C)CC1 (stereo not shown),19.6%
11,CCOC(=O)C1=C(c2ccccc2)Nc2ncnn2C1c1cccc(OC)c1OC (stereo not shown),15.9%
12,Cc1cccc(N2CCN(S(=O)(=O)c3ccc(-c4ccc(=O)[nH]n4)o3)CC2)c1C,11.8%
13,Nc1nc(CSc2nc3ccccc3[nH]2)cs1,15.3%
14,CCN(CCNCC(O)COCc1ccc(Cl)cc1)c1cccc(C)c1.O=C(O)C(=O)O (stereo not shown),-18.2%
15,Cc1cc(=O)oc(C)c1C(=O)Nc1c(C)n(C)n(-c2ccccc2)c1=O,13%
16,COC(=O)c1ccc(C23CC4(C2)[C@H](CN(C)[C@@H]4c2ccccc2)C3c2ccc(C(F)(F)F)cc2)cc1 (stereo partly shown),-11.7%
17,Nc1ccccc1C(=O)N=Nc1[nH]c(N)c2ccccc12,29.2%
18,Cc1cccc(C)c1NC(=O)CN(C)C(=O)C1CCN(c2ncnc3sc(C)c(C)c23)CC1,-46.7%
19,O=C(Nc1cccc2ccccc12)c1nn(C23CC4CC(CC(C4)C2)C3)cc1Br,9.58%
20,CCOC(=O)c1sc(SC)c(C(C)=O)c1C,-0.635%
21,O=C(NCC(=O)N1CCN(c2cccc(Cl)c2)CC1)c1ccc(Br)o1,-78.4%
22,COc1cc2c(cc1OC)C(C)N(S(=O)(=O)c1cccs1)CC2 (stereo not shown),-12.9%
23,Cc1cc(C(=O)NC(C)c2ccncc2)no1 (stereo not shown),4.89%

row,Structure (SMILES),"hERG current change (%, negative = inhibition) at 10uM"
1,COc1ccccc1/C=C/c1nc2ccccc2c(=O)o1,-6.91%
2,O/N=C(\COc1ccccc1O)c1ccccc1,-4.58%
3,CC(=O)N1CCC(=NNc2ncc(C(F)(F)F)cc2Cl)CC1,2.73%
4,Cc1ccc(OCC(=O)N/N=C/c2cccn2C)cc1C,-8.95%
5,NC(=NC(=O)c1ccc(OCC(F)(F)F)nc1)c1ccc(Cl)cc1,17.9%
6,O=C(Nc1cccc([N+](=O)[O-])c1)Nc1ccc2c(c1)OCCO2,-1.17%
7,CC(C)N1C(=O)CCC1C(=O)NCc1ccccc1Cl (stereo not shown),10.2%
8,CCOC(=O)/C(C#N)=C/c1cccc(F)c1,-0.926%
9,CCOC(=O)CNC(=O)N1CCCC(C(=O)c2cccc(Cl)c2)C1 (stereo not shown),-18.6%
10,O=C(CNC(=O)c1ccco1)NCc1nc2ccccc2[nH]1,7.66%
11,FC(F)(F)c1cccc(Cc2noc(CN3CCCC(OCc4ccccn4)C3)n2)c1 (stereo not shown),-36.4%
12,O=[N+]([O-])c1cc(S(=O)(=O)C(F)(F)F)ccc1Sc1nc2ccccc2[nH]1,10.3%
13,O=c1c(/C=C(\O)c2ccc(F)cc2)nc2ccccc2n1-c1ccccc1,2.66%
14,C(=N/Nc1nccs1)/c1cccnc1,10.1%
15,COCc1cc(NCc2ccc(Cl)cc2)nc(C)n1,-10%
16,CN(C)c1ccc(C(=S)N2CCN(C(=S)Nc3cccc4ccccc34)CC2)cc1,-1.42%
17,CC(C)CCNC(=O)CCNS(=O)(=O)c1ccc(Cl)cc1,-6.66%
18,COc1ccccc1CNC(=O)COC(=O)Cc1c[nH]c2ccccc12,-29.5%
19,CCCCOC(=O)CCCN1C(=O)/C(=C2\SC(=S)N(CCCC(=O)OCCCC)C2=O)SC1=S,9.24%
20,C=CC#CC1(O)CC(C)[N+](C)(C)CC1C.[I-] (stereo not shown),17.4%
21,Cc1c(C(=O)NCCSCc2cccc(C(F)(F)F)c2)cnn1-c1ccc(F)cc1,-64.6%
22,CCn1c2ccccc2c2nnc(SCCN3CCCCC3)nc21,-39.1%
23,COc1ccc(Nc2nc(N)nc(CSc3nnc(N)s3)n2)cc1,23.8%
